Data reported in the supplement of paper PMC10126150.
Values marked as one replicate rest on one cluster of the flow cell; about a third of the high ones do not repeat.

tested on: ATP; assay: switch fluorescence ratio, 500 uM ATP over buffer (Cy3 cluster intensity, sum of 5 cycles each) (fold (ratio)); higher = stronger signal-on switching upon ATP binding; sequences stand for … in TCGTCGGCAGCGTCAGATGTGTATAAGAGACAGTTTTTTTTTTTTTTTTTTTTTTTTT…TC; settings: aptamer strand: ATP DNA aptamer (quencher-CACCTGGGGGAGTATTGCGGAGGAAGG + anchor), 100 nM annealed; ATP concentration: 500 uM; one replicate
Method in brief: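 Imaging in selection buffer was followed by imaging after 15 min with 500 uM ATP at 22 °C, for Cy3-labelled switching-strand clusters annealed to 100 nM quencher-labelled ATP aptamer on a modified Illumina MiSeq flow-cell. Five of these buffer/ATP cycles ran, separated by NaOH stripping and re-annealing. The fluorescence ratio per cluster is summed target-cycle over summed buffer-cycle Cy3 intensity, averaged per switch-domain sequence; clusters outside 100-1000 RFU were removed.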
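Also: ATP exposure 15 min at 22 °C before imaging.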

| Sequence | switch fluorescence ratio |
| --- | --- |
| TAGGGACGGA | 1.06 |
| TAGGGATAAT | 1.06 |
| TAGGGATAGG | 0.996 |
| TAGGGATCTA | 1 |
| TAGGGCAAGG | 0.992 |
| TAGGGCTCGT | 0.983 |
| TAGGGCTTCA | 1.03 |
| TAGGGGCGAC | 1.08 |
| TAGGGTCAAA | 0.922 |
| TAGGGTCTTA | 1.02 |
| TAGGTAATGA | 1.04 |
| TAGGTAGAGC | 1.05 |
| TAGGTATAG | 0.984 |
| TAGGTCCTTC | 1.03 |
| TAGGTGCAG | 1.01 |
| TAGGTTC | 0.92 |
| TAGTAACTGT | 1.03 |
| TAGTAAGACT | 0.974 |
| TAGTAATGAC | 1.05 |
| TAGTAATTGT | 1.04 |
| TAGTACACCC | 1.04 |
| TAGTACCAGT | 1.04 |
| TAGTACCTTA | 1.08 |
| TAGTACGGTC | 0.98 |
| TAGTAGACCA | 0.984 |
| TAGTAGGTA | 1.09 |

| Sequence | switch fluorescence ratio |
| --- | --- |
| TAGTATGATG | 0.968 |
| TAGTCAATTT | 1.03 |
| TAGTCATCGA | 1.03 |
| TAGTCCGTTC | 0.974 |
| TAGTCGACAG | 1 |
| TAGTCGGGTA | 1.03 |
| TAGTCTATAT | 0.997 |
| TAGTCTATGA | 0.938 |
| TAGTCTTAT | 0.995 |
| TAGTGAAGGA | 1.03 |
| TAGTGATAGA | 1.07 |
| TAGTGCGAAG | 1.02 |
| TAGTGTAGTG | 0.991 |
| TAGTGTGCA | 0.981 |
| TAGTGTTCAC | 0.96 |
| TAGTTAACG | 1.04 |
| TAGTTAATGT | 1.05 |
| TAGTTATCGC | 1.01 |
| TAGTTCTAGC | 0.972 |
| TAGTTGGTCC | 1.01 |
| TAGTTGTCA | 0.971 |
| TAGTTTAGTG | 1 |
| TAGTTTTAAG | 1.02 |
| TATAAAGGAC | 1.06 |
| TATAAATCGT | 1.04 |
| TATAACATAC | 1.37 |

| Sequence | switch fluorescence ratio |
| --- | --- |
| TATAACGGGG | 0.976 |
| TATAACTACT | 1.02 |
| TATAATAACA | 0.986 |
| TATAATGTT | 0.988 |
| TATACACTAC | 1.28 |
| TATACCAATT | 1.12 |
| TATACCTGCG | 1 |
| TATACCTGGT | 1.02 |
| TATACGTACC | 1.64 |
| TATACGTTCG | 1.04 |
| TATACTCCGT | 2.29 |
| TATAGACTCG | 0.977 |
| TATAGCCTGG | 1.01 |
| TATAGCTGGT | 1.01 |
| TATAGGCTTA | 0.961 |
| TATAGGTGTA | 1.05 |
| TATAGGTTCC | 1.02 |
| TATAGGTTGC | 0.991 |
| TATAGTAAAT | 0.948 |
| TATAGTGGAA | 0.997 |
| TATAGTGTGC | 0.998 |
| TATATAACCA | 0.968 |
| TATATACGGA | 1.05 |
| TATATACTAG | 1 |
| TATATATTAG | 0.986 |
| TATATCGCA | 1 |

| Sequence | switch fluorescence ratio |
| --- | --- |
| TATATCGCTG | 1.06 |
| TATATGCGAG | 0.995 |
| TATATGGGAG | 0.971 |
| TATATGGT | 1.04 |
| TATATTATAT | 1.01 |
| TATATTCTAG | 0.991 |
| TATATTGTTT | 1.02 |
| TATATTTCGC | 1.01 |
| TATATTTTTG | 1.08 |
| TATCAAGAAA | 1.02 |
| TATCAAGGGG | 1.39 |
| TATCAATGGG | 1.05 |
| TATCAATTTC | 0.99 |
| TATCACAAGG | 1.04 |
| TATCACACAT | 1.07 |
| TATCAGTGAA | 0.984 |
| TATCATCATC | 0.948 |
| TATCATGGAA | 0.97 |
| TATCCAGGCG | 1.13 |
| TATCCAGGTA | 1.08 |
| TATCCCAGTT | 1.08 |
| TATCCGCTTT | 2.33 |
| TATCCTTATT | 0.957 |
| TATCGAGGGG | 0.951 |
| TATCGAGGTT | 1.01 |
| TATCGCATCC | 1.3 |

| Sequence | switch fluorescence ratio |
| --- | --- |
| TATCGCGGGA | 1.03 |
| TATCGCGTGC | 1.03 |
| TATCGGGCA | 0.993 |
| TATCGGGTG | 1.03 |
| TATCGTACGT | 0.956 |
| TATCGTCC | 0.932 |
| TATCGTGCC | 0.979 |
| TATCGTGGTG | 0.972 |
| TATCTAAAAA | 0.984 |
| TATCTGAGAT | 0.993 |
| TATCTGATAG | 0.987 |
| TATCTGCGGT | 1.02 |
| TATCTTCAAC | 1.04 |
| TATGAATTCT | 1.02 |
| TATGACGCCA | 1.02 |
| TATGACGCTG | 1.01 |
| TATGAGTC | 1.01 |
| TATGCCGCAG | 1.04 |
| TATGCGGAAA | 1.05 |
| TATGCGGTTT | 1.04 |
| TATGCTAAGC | 0.979 |
| TATGCTGCTT | 1 |
| TATGGCAGAG | 0.975 |
| TATGGCCCTA | 0.986 |
| TATGGCGTTT | 1.01 |
| TATGGGCCAT | 1.26 |

| Sequence | switch fluorescence ratio |
| --- | --- |
| TATGGGGCCA | 0.961 |
| TATGGTGGGA | 0.985 |
| TATGGTTCGA | 0.973 |
| TATGGTTCGT | 0.999 |
| TATGGTTGT | 0.986 |
| TATGTAGGCA | 0.978 |
| TATGTATTCA | 1.04 |
| TATGTCAACA | 0.975 |
| TATGTCGGTG | 0.989 |
| TATGTGAAAT | 0.991 |
| TATGTGACAC | 0.981 |
| TATGTGGCCC | 0.974 |
| TATGTGTTCC | 1.01 |
| TATGTTGGCC | 1.04 |
| TATGTTTAAC | 1.09 |
| TATGTTTCTG | 0.99 |
| TATTAAGGGC | 1.01 |
| TATTAAGTAC | 1.4 |
| TATTAAGTCC | 1.02 |
| TATTAATTCA | 1.02 |
| TATTACTACT | 1.06 |
| TATTAGAGAA | 0.999 |
| TATTAGAGG | 1.02 |
| TATTAGCAAA | 1.03 |
| TATTAGTACC | 1.03 |
| TATTATACCC | 1.06 |

| Sequence | switch fluorescence ratio |
| --- | --- |
| TATTATAGTT | 1 |
| TATTATGTCT | 0.993 |
| TATTCGGTGT | 0.973 |
| TATTCTAGAT | 1 |
| TATTCTGTA | 1.01 |
| TATTGAATG | 0.979 |
| TATTGATTG | 0.979 |
| TATTGCGTAC | 2.34 |
| TATTGGGACC | 0.952 |
| TATTGGTATA | 1.04 |
| TATTGTCCAA | 0.967 |
| TATTTACTAC | 1.11 |
| TATTTATGAT | 0.963 |
| TATTTCAAGA | 1.03 |
| TATTTCACTT | 0.985 |
| TATTTCCGAG | 1.16 |
| TATTTCGGTC | 0.943 |
| TATTTCGTTC | 0.983 |
| TATTTGGATT | 0.973 |
| TATTTTAAGA | 1.15 |
| TATTTTAGTC | 1.07 |
| TCAAAAACAC | 1.77 |
| TCAAACCCCA | 1.06 |
| TCAAACTTT | 1.03 |
| TCAAAGGCAG | 0.989 |
| TCAAAGGTTG | 1.05 |

| Sequence | switch fluorescence ratio |
| --- | --- |
| TCAAAGTGGT | 1 |
| TCAAATATTG | 0.963 |
| TCAACCACCA | 1.09 |
| TCAACGTGC | 1.01 |
| TCAAGATGAA | 0.955 |
| TCAAGCCGAC | 1.05 |
| TCAAGCGGCC | 1.02 |
| TCAAGCGGTG | 1.03 |
| TCAAGGAACC | 1.04 |
| TCAAGGGTTT | 0.972 |
| TCAAGTCTGT | 0.998 |
| TCAAGTGATG | 0.966 |
| TCAATATGAG | 1.03 |
| TCAATCAAGA | 1.02 |
| TCAATCATTA | 1.04 |
| TCAATCCACT | 1.03 |
| TCAATCGTTA | 1.02 |
| TCAATGCACT | 1.04 |
| TCAATGGGAG | 0.974 |
